# Test results from paper PMC4336329 (PLoS ONE, 2015).
# Among all 310,000 compounds or so, about 14,000 (4.5%) showed an effect of 50% or more. Effects have a minus sign here. The list shows a part of the results.
# Biological target: human ether-à-go-go-related gene (hERG) potassium channel (human, UniProt Q12809)
# Experiment: primary screen, population patch clamp on CHO cells stably expressing hERG
# 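Also: peak tail current of the secondary pulse compared with the same well before compound.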
# Chain of human ether-à-go-go-related gene (hERG) potassium channel (Q12809 whole entry, looked up): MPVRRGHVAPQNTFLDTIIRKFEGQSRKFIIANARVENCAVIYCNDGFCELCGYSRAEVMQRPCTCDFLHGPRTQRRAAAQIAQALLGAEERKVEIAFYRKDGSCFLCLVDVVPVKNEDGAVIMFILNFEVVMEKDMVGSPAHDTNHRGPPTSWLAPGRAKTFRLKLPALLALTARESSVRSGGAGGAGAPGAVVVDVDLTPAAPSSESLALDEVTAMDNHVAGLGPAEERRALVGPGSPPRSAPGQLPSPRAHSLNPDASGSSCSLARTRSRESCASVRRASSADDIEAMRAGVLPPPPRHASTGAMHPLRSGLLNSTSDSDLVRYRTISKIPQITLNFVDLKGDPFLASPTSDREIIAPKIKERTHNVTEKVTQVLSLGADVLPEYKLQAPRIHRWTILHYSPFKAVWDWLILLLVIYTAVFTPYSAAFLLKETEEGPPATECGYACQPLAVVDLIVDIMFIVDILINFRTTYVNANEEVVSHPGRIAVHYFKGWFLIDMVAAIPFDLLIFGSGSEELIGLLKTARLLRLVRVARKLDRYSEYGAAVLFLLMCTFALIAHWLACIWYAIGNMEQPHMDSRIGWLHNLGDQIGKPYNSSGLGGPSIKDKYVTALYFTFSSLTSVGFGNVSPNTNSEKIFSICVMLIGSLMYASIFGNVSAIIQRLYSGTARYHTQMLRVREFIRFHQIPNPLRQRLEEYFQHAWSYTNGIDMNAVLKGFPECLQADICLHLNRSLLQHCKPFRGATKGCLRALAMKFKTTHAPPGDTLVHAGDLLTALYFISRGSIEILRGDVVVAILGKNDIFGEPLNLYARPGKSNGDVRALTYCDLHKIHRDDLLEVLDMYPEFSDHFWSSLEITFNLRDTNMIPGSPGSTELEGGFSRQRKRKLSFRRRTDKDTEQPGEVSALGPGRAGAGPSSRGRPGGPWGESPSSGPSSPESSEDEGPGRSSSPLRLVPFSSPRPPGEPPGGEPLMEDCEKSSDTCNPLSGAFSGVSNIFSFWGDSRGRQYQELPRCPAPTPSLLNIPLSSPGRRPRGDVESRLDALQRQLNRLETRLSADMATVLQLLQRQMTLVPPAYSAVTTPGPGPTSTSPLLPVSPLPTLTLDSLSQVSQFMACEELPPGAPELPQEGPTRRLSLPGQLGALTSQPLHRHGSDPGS
row,SMILES,"hERG current change (%, negative = inhibition) at 10uM"
1,Cc1onc(-c2ccccc2Cl)c1C(=O)Nc1nnc(C(C)C)s1,-3.27%
2,CC(=O)Nc1ccc(C(=O)N/C(=C/c2ccccc2)C(=O)Nc2cccc(C(=O)O)c2)cc1,15.8%
3,COc1ccc(CNc2ccc(S(N)(=O)=O)cc2)c(OC)c1OC,1.15%
4,Cc1cccc(N/C=C/C(=C(C#N)C#N)N(C)C)c1,-24.5%
5,COc1ccc(-c2nnc(SCC(=O)NC(=O)NCc3ccccc3)o2)cc1,9.51%
6,O=C(NCc1ccco1)C(c1ccccc1)N(CC1CCCO1)C(=O)Cn1nnc2ccccc21 (centres unmarked),-12.4%
7,COC(=O)c1ccc(C(=O)OC)c(NC(=O)CSc2nnc(-c3ccccc3Cl)o2)c1,-6.19%
8,CCOC(=O)c1ccc(C(=O)NNC(=O)C2CC=CCC2)cc1 (centres unmarked),21.8%
9,N#Cc1ccccc1CSc1ncccc1C(=O)O,23.5%
10,C=CCn1c(SCC(=O)N2CCCC2)nc2c([nH]c3ccccc32)c1=O,-29.6%
11,Cc1cnc(C(=O)Nc2cccc3ncccc23)cn1,9.53%
12,Cc1cc(C(=O)NN=C2C3CC4CC(C3)CC2C4)c2ccccc2n1,11%
13,CC1(C(=O)N/N=C/c2ccc3c(c2)OCO3)CC1(Br)Br (centres unmarked),-5.57%
14,C=C(C)C(=O)OCC(C)C,19.4%
15,O=C1N[C@@H](Cc2ccccc2)C(=O)N2[C@H]1C[C@H]1c3ccccc3N(OOSc3ccccc3)[C@H]12,-27.7%
16,C/C(=N\NC(=O)c1cccs1)c1c(O)cc(C)oc1=O,23.1%
17,CC(=O)c1c(Nc2ccccc2)sc(C(=O)c2ccccc2)c1C,-10.7%
18,Cc1cccc(NC(=O)Cn2nnc(C(=O)NCc3cccs3)c2N)c1C,20.5%
19,Cc1cc(C)cc(NS(=O)(=O)c2ccc(Oc3ncc(C(F)(F)F)cc3Cl)cc2)c1,24.8%
20,CCN(CC(=O)Nc1ccccc1C(F)(F)F)C(=O)CCOc1ccccc1C,6.04%
21,CC1CCN(C(=O)c2nc[nH]c2C(=O)N2CCC(C)CC2)CC1,17.6%
22,Cc1ccc(S(=O)(=O)Nc2cc(C(=O)N3CCC4(CC3)OCCO4)ccc2N2CCCCC2)cc1,-51.3%
23,CCNC(=S)N1CCNC(=O)C1CC(=O)OC (centres unmarked),-1.54%

row,SMILES,"hERG current change (%, negative = inhibition) at 10uM"
1,Cc1ccccc1OCC(O)CN1CCN(C)CC1.Cl (centres unmarked),-0.704%
2,Cc1cc2cc(CN(Cc3cccs3)C(=S)NCC3CCCO3)c(=O)[nH]c2cc1C (centres unmarked),-3.08%
3,c1ccc(N2CCN(c3nc(-c4ccccn4)nc4ccccc34)CC2)cc1,-73.9%
4,Cn1c(Nc2ccccc2)nc2ccccc21,1.74%
5,O=C1CC(SCc2nc3ccccc3[nH]2)C(=O)N1c1ccc(Cl)cc1 (centres unmarked),-18.7%
6,CCc1ccccc1NC(=O)CCN1C(=O)c2ccccc2C1=O,8.21%
7,CC(NC(=O)c1ccc([N+](=O)[O-])cc1[N+](=O)[O-])c1ccc(-c2ccccc2)cc1 (centres unmarked),-1.64%
8,CCOC(=O)C(=CNc1ccc(OC)cc1[N+](=O)[O-])C(=O)OCC,10.5%
9,CN1CCn2c1nc(N1CCOCC1)nc2=O,0.997%
10,Fc1ccc(-n2c(-c3cc(C4CC4)[nH]n3)n[nH]c2=S)cc1Cl,11.8%
11,CCN(CC)S(=O)(=O)c1ccc(Br)c(OC)c1,-11.2%
12,Cc1cccc(C)c1NC(=O)c1ccc(-n2cnnn2)cc1,-44.2%
13,Cc1ccccc1NC(=O)c1cccc(S(=O)(=O)Oc2ccc([N+](=O)[O-])cc2)c1,-24.5%
14,N#C/C(=C\c1ccc(O)cc1)C(=O)NCc1cccc(Cl)c1,25.3%
15,O=C(N1CCOCC1)N1CCOCC1,-21.7%
16,C=CCn1c(SCC(=O)Nc2ccc(-c3nc4ccc(C)cc4s3)cc2)nnc1-c1ccccc1,-3.04%
17,Cc1ccc(OC(=O)c2cccc(S(=O)(=O)N3CCCC3)c2)c(-n2nc3ccccc3n2)c1,7.11%
18,CCCCOC(=O)n1ccc(C(=O)Nc2ccccc2OC)n1,-38.5%
19,O=C(Cc1ccc(-n2c(=O)[nH]c3ccsc3c2=O)cc1)N1CCN(c2ccc(Cl)cc2)CC1,31%
20,CCCCNC(=O)CN(c1ccc(Cl)c(Cl)c1)S(C)(=O)=O,8.64%
21,CCC1C(=O)CC(c2ccco2)NC1c1ccco1 (centres unmarked),5.53%
22,COc1ccc2nc(NC(=O)c3cc(S(=O)(=O)N4CCOCC4)ccc3C)sc2c1,1.72%
23,CCC(NC(=O)c1cccc(Cn2nc(C)c([N+](=O)[O-])c2C)c1)c1ccc(C(C)C)cc1 (centres unmarked),-0.782%

row,SMILES,"hERG current change (%, negative = inhibition) at 10uM"
1,CCOC(=O)C1(Cc2ccccc2C)CCCN(C(=O)c2ccc3nccnc3c2)C1 (centres unmarked),9.72%
2,CC(Oc1ccc(Cl)cc1Cl)c1nc(-c2ccc(NC(=O)c3ccncc3)cc2)no1 (centres unmarked),2.89%
3,CCOc1ccccc1NC(=O)COC(=O)Cc1cccs1,18.5%
4,Cc1cc(-c2nnc(CCC(=O)NCc3ccc(OC(F)(F)F)cc3)o2)no1,3.05%
5,CC1CCCN(c2ccc(C(=O)NCC3CCCO3)cn2)C1 (centres unmarked),-8.01%
6,Cc1ccc(S(=O)(=O)N(CC(=O)NCC2CCCO2)c2cccc([N+](=O)[O-])c2)cc1 (centres unmarked),-34.5%
7,Cc1ccc(S(=O)(=O)c2nc(-c3ccccc3)oc2SCC(=O)NCC2CCCO2)cc1 (centres unmarked),8.99%
8,CCc1ccc(CN(C)C(=O)C2CCC(=O)N(CCCN3CCCC3=O)C2)cc1 (centres unmarked),-3.87%
9,COC(=O)/C(C#N)=C/c1c[nH]c2ccccc12,19.6%
10,Cc1nnsc1C(=O)N1CCN(c2ccc(F)cc2)CC1,1.36%
11,CCCNC(=O)[C@H]1N2C(=O)c3c(ccc(OC)c3OC)C2SC1(C)C (some centres unmarked),16.4%
12,COc1ccc(-c2cn3c(C)c(C(=O)NCCN4CCOCC4)sc3n2)cc1,-41.1%
13,O=C(c1ccc(-c2ccc(Cl)cc2Cl)o1)N1CCOCC1,-30.4%
14,CCOC(=O)c1cn(CC)c2cc(N3CCOCC3)c(F)cc2c1=O,9.69%
15,O=C(Nc1ncc2c(n1)-c1ccccc1OC2)c1ccc(Cl)cc1,-9.77%
16,c1ccc(COc2ccc(OCCn3cncn3)cc2)cc1,4.65%
17,COc1ccc(CC(=O)NCCS(=O)(=O)N2CCN(c3ccccc3OC)CC2)cc1,-17.1%
18,COc1ccc(NC(=O)CCN2C(=O)c3ccccc3S2(=O)=O)cc1,-6.9%
19,O=C(/C=C/c1ccccc1)NC(=S)Nc1ccccc1O,14.1%
20,CCCCNC(=S)NNC(=O)c1nn(C)cc1Cl,14.1%
21,COc1ccc(N2CCN(Cc3csc(C)c3-c3ccc(C)cc3)CC2)cc1,10.6%
22,CC(C)N1CCC(N2CCN(Cc3ccc(-c4ccc(Cl)cc4)o3)CC2CCO)CC1 (centres unmarked),-64.5%
23,Cc1cc(N2CCN(S(=O)(=O)c3ccc(Cl)c(Cl)c3)CC2)c2ccccc2n1,-45.3%

row,SMILES,"hERG current change (%, negative = inhibition) at 10uM"
1,O=C(O)CCc1nnc(SCC(=O)Nc2ccc(Br)cc2)[nH]c1=O,19.4%
2,CC(=O)N1CCc2c(sc(NC(=O)CN3C(=O)CCC3=O)c2C(N)=O)C1,-2.73%
3,COc1ccc(S(=O)(=O)N2CCCCCC2)cc1C(=O)OCC(=O)NCC(C)C,-42.5%
4,Cc1ccc2c(c1)c1c3n2CCCN(Cc2ccccc2)C3CCC1 (centres unmarked),-3.24%
5,COc1cccc(OCc2cc(C(=O)N3CCNC(=O)C3Cc3ccccc3)no2)c1 (centres unmarked),0.349%
6,COc1ccc(C(=O)NCC2CCCO2)cc1 (centres unmarked),1.17%
7,COc1cc(OC)c(C(=O)NCc2ccco2)cc1OC,15.3%
8,CC(C)(C)n1cnc2cc(NC(=O)c3cccs3)ccc21,-13.9%
9,CCN1C=CC2=C(C#N)C(N)C(C#N)(C#N)C(c3ccccc3C(F)(F)F)C2C1 (centres unmarked),-5.37%
10,O=C(Nc1cccnc1Cl)c1cc(-c2ccc(Cl)cc2)on1,13.4%
11,CC(O)CNCCCCOc1ccc(OCc2ccccc2)cc1 (centres unmarked),-18%
12,Cc1csc(NC(=O)CSc2nc3sc(C)c(C)c3c(=O)[nH]2)n1,4.3%
13,O=S(=O)(c1cccs1)N1CCN(Cc2ccccc2)CC1,-14%
14,COc1cccc(C(=O)NC(=S)Nc2ccc(N3CCCC3)cc2)c1,10.6%
15,CCC(=O)Nc1nnc(-c2cccs2)s1,24.2%
16,COc1ccccc1NC(=O)CCCc1c[nH]c2ccccc12,6.15%
17,COc1ccc(OCC(=O)Nc2ccc3c(c2)nc(CCn2ccccc2=O)n3C)cc1,-10.8%
18,Cn1c(=O)c2cc(S(=O)(=O)N3CCN(c4cccc(C(F)(F)F)c4)CC3)ccc2n(C)c1=O,8.48%
19,CNC(=S)N(CCc1c(C)[nH]c2ccccc12)Cc1cccnc1,11%
20,Cn1nc(OC(=O)Nc2ccc(F)cc2)cc1C(F)(F)F,-7.95%
